From the supplement of paper PMC3334620
Over roughly 33,000 sequences, “E-score (-0.5 to 0.5)” has its median near -0.035; the highest 2% begin near 0.35. This is one part of the list.

target: T1, Pdr3 (UniProt P33200); test: PBM E-score (8-mer binding enrichment) (E-score (-0.5 to 0.5)); higher = stronger / more preferred TF binding; most listed sequences are background and not binding sites; conditions: protein concentration: 200 nM; construct: GST-full length
T1 sequence: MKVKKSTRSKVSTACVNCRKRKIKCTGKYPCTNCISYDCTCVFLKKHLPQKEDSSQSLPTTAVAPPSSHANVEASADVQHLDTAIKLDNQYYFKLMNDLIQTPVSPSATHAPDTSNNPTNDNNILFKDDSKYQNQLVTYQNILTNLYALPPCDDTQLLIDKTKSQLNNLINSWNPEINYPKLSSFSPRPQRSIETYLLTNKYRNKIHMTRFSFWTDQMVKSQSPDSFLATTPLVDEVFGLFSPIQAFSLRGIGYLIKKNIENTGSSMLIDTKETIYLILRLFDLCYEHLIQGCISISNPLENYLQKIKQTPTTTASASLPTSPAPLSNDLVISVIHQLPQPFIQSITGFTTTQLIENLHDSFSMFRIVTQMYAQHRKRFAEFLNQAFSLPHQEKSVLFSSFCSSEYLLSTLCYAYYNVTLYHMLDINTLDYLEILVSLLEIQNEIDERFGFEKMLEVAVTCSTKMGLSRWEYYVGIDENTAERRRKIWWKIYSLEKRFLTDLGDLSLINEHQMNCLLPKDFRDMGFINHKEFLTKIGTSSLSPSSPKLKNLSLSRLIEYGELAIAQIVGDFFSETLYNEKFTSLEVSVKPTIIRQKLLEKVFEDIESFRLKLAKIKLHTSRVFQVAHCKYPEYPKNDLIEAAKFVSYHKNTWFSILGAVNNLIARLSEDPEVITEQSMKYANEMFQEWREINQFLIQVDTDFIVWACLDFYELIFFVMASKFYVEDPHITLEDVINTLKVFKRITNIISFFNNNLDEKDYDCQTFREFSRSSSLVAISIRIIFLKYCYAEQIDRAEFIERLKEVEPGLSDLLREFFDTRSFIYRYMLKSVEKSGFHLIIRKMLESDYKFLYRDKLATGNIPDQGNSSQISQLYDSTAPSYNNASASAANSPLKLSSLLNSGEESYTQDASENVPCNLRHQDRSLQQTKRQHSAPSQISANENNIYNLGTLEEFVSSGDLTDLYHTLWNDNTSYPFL
Protocol: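 Universal 'all 10-mer' protein binding microarrays (Agilent AMADID 015681) probed with GST-tagged S. cerevisiae TFs (full-length or DBD) made by in vitro transcription/translation (PURExpress), about 100-200 nM. Bound TF was detected with fluorescent anti-GST. Each ungapped 8-mer (which stands for itself and its reverse complement) is scored by the PBM enrichment score (E-score), a modified Wilcoxon-Mann-Whitney statistic from -0.5 to +0.5, computed with the Universal PBM Analysis Suite. Scale: above 0.35 generally sequence-specific binding.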

Sequence | PBM E-score
ACAGAATC | -0.102
ACCTGGTG | 0.0787
AAAGGAGT | -0.0436
AATCGCGG | 0.233
GGTCCAAC | 0.0264
GACTGAAC | -0.113
CGTCAGGA | -0.194
GATGTACA | 0.00746
TAACTCGA | -0.00617
AACTTGTC | 0.0171
CAGTAGCG | 0.0969
CTAGGTAA | -0.143
ACCGCTAG | -0.268
AAACGAGG | -0.0533
ACACGTGA | -0.0818
TATATTAA | 0.169
ACTGCGAC | -0.0554
ACTGTTAA | -0.231
CTCTAGAG | -0.195
AACAGTAA | -0.0594
AATCTGCG | 0.181
ACTAGAGT | -0.252
AAAAAGTA | -0.0952
CCCTTTAC | -0.082
ACAGCTCT | -0.212

Sequence | PBM E-score
ATCGAGGC | -0.117
ACGCCCGC | 0.162
AACTTTCG | 0.032
CAACGATG | -0.106
GATGACAC | -0.00417
AATGGATA | 0.026
AGGAAAAG | 0.0387
CCCTCTGA | -0.0519
GTCTGTCA | -0.07
CATCGTCA | -0.135
GTGGGCCA | 0.0137
GTTCAGCA | -0.196
GTGCTGAA | -0.105
GTCCCGAC | 0.255
ACCGACGA | 0.0477
ATATCGGC | 0.121
CTATCCTC | -0.179
TACCAGTA | -0.143
GGAAGTAC | 0.265
ACCGCGGT | 0.4
CCCTTCCG | 0.392
ATATATCC | 0.294
AGGTAGAT | 0.0361
CATTAGGA | -0.162
GGGTGGAA | -0.0277

Sequence | PBM E-score
GGTCGTAC | -0.0185
GAAGACTC | -0.138
TATTAAAA | 0.0638
AAAAGATG | -0.15
CAGAACCA | -0.211
CCGAGATC | 0.286
GATCGTAA | -0.187
AACGCGAT | 0.118
ATTAGAAT | -0.00778
CGCCAGAG | -0.0366
CTGCAAAA | -0.109
ACGCATTG | -0.184
ATTACAGC | -0.104
GACGTCGC | -0.233
CATGGGCC | 0.107
CCCAACTC | 0.16
CAAGGTTC | -0.129
AAAACCTT | -0.143
GACAAGAA | 0.0834
ATGACGCG | 0.0815
CTCACTTA | -0.0807
CGCCCTAG | -0.0483
AACTGTCC | 0.138
CACGTGGA | -0.0333
CTCGTAAA | -0.0445

Sequence | PBM E-score
CATGTTTC | -0.0125
TGATTGAA | 0.0579
ATTTATCA | 0.116
AGGCCCGA | -0.0363
ACGAAAGA | -0.0345
CCCGGCAG | 0.303
CAAGGATC | -0.0745
ACTAGATC | -0.2
ATGCGTGG | -0.313
ACCTAACG | -0.168
ATCCGTGA | 0.306
ATCTAAGG | -0.149
GACCTCGA | 0.113
TTGAACAA | -0.176
AAAGTGTA | -0.224
TCGCTTAA | 0.0103
AGACCGTA | -0.13
CCCGCGAC | 0.175
AGTTAGCG | 0.0161
CAAGCCCC | -0.0333
GAGCGGCA | 0.206
CAGTGACA | -0.196
ATATAAAT | 0.133
AACCCAAA | 0.103
ACTAGCTG | -0.167

Sequence | PBM E-score
GGACTCAA | -0.0971
ATAACGAG | -0.138
GGAACGCA | 0.275
CACTTAGA | -0.119
GTAACAGA | 0.129
CGTTACAA | -0.136
CGTTATTC | -0.0231
AGCATGTA | -0.24
GCTGAGAA | -0.139
CTTATGAC | 0.0626
GAATTCGA | 0.032
ATAGAGAG | -0.267
TGTTGCAA | 0.0777
TATGAGCA | -0.202
GGTATACC | 0.123
CACCGAGC | 0.169
GGGGACCA | -0.0462
AGTGTTCC | 0.301
CCATGCAC | -0.0706
ACTTTTCC | 0.269
AAAGCGGC | 0.14
CTCTCTTA | -0.155
CGAAGTTA | -0.0595
ACTTTAAA | 0.113
AGACGTGG | -0.0706

Sequence | PBM E-score
AGTGCTCA | -0.244
ACCGAGGT | 0.169
CGAATAAC | 0.0754
GTGTTCAA | -0.0336
GAGCCAGC | -0.0887
CCTCACCG | -0.0232
CCCCCGAC | 0.0417
AATCCTGT | 0.00889
CAAGCTCA | -0.0814
AGCGGTGG | 0.0232
CGATTATA | 0.0681
AAGTCCTC | -0.0742
ACGTCGAT | -0.0231
ACTAACTC | -0.138
ACTTGTCT | -0.164
AGACGGGA | 0.187
ATTCTCCA | -0.113
CCCCCACA | -0.401
CCACGCCC | -0.00205
ACCAATCA | 0.0165
GTCTTTCA | -0.193
ACGTTTGC | -0.0449
ACAGACAT | 0.042
TACCATGA | -0.289
AGGGCCCG | 0.182

Sequence | PBM E-score
CTGATAAG | -0.0916
CAATTAGC | -0.0494
CCGTCATA | 0.251
ACACTTTA | 0.00159
ATCTTTCG | -0.00446
AACAGTGG | -0.0238
CCTACCCC | 0.0218
GATAGTAC | 0.0506
CTGCCGAC | 0.152
ACATAAAA | -0.206
AAATCAGA | -0.0593
CAACCTGG | 0.0391
CCCCGGAA | 0.421
GCGAAGTA | 0.09
ACCGGGGC | 0.224
CACGGTGG | 0.116
ATCGACAC | -0.0916
ACGGTGAC | -0.101
CTTCACAA | -0.214
ACAATGAG | -0.132
CCACGCTC | -0.141
AAGCGGAC | 0.171
